Reference: the supplement of paper PMC3724861
Some of the results follow.

Test system: T1, Caupolican (Caup) homeodomain DNA-binding domain
T1 sequence: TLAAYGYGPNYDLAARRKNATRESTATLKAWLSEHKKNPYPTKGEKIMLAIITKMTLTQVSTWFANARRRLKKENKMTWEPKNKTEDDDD
Experiment: PBM E-score (8-mer, recovered from the published 9-mer minima) (E-score (dimensionless, -0.5 to 0.5)); Drosophila protein; higher = stronger relative binding preference, active = 0.31 or more
Procedure, shortened: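 An enrichment score, with higher meaning stronger, expresses relative binding preference for each short DNA word. The protein used was Caup's homeodomain DNA-binding domain (residues 214-303), produced by in vitro transcription and translation and tested at 100 nM on custom-designed protein binding microarrays. The 8-mer values were recovered from published 9-mer scores, each equal to the lower of its two constituent 8-mer scores.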

PBM E-score, ≥ 0.221:
AAAATTGT

PBM E-score, ≥ 0.0662:
AAGAGGAT

PBM E-score, ≥ 0.126:
AACTCGTC

PBM E-score, active:
GGTTGTAA 0.333, GTATGTCA 0.345

PBM E-score, ≥ 0.283:
ACATAGCA

PBM E-score, inactive:
AGTCTGAG -0.0717, ATCGCGGG -0.113, TAGGAATA 0.0829, CTATTTAA -0.0109, ACTGCTCG 0.0439, TCGAGAAA 0.0176, AGGGAAGC -0.189, AGTCAGGA -0.073, CCTTCCCG -0.177, GAAGGCCC -0.266, CTGCCAAG -0.0659, AGAAAAAG -0.12, GCGGGGAA -0.089, CGGGCCGA -0.212, TTCAAGAA 0.0713, CCGAATGC -0.0958, TCCTAGCA 0.0469, CTATGCAG 0.0159, ACAAGATC 0.258, AACCTACA 0.211, CACCTAGA -0.0016, GAGGGCAA -0.125, TACTGGCA -0.0449, CTTACGAA 0.0281, ATGCGACG -0.0301, AGTCATTC 0.0954, AGGAACAC 0.193, ACGCAGCG -0.141, CAGCCCGA -0.199, AGGTAGTA 0.143, ACGCGGCC -0.162, CGGAAGGC -0.315, ATAAGAGC -0.0159, GAAGACCA -0.126, GAGTAGAA 0.00839, ATTCATCA 0.113, ACAGCCAG 0.0232, ACTCTTCC -0.0373, CGATGGAA -0.0358, AACACTGG 0.125, TCTAAACA 0.191, AGCCGTAA -0.0484, CCTGCTAA -0.139, GCGCACCA -0.0965, GAGCAGCC -0.0103, CGCATGCA 0.025, AGGCCGTA -0.041, AGTAATAA 0.186, ACTAAGAG -0.0163, AGCGGTGA -0.113, CAGAACAG 0.0845, GATTTCGA -0.0262, GAAATGCC -0.0434, AGAAAGAC -0.0431, CCCCAACC -0.122, GGACGTCC -0.158, AATAGTGC -0.0386, CAGTACAC 0.288, CATAAGTC 0.0202, CTACATCC 0.189, CCCGGGAG -0.242, GACCAATC -0.0206, ACTGCTCT -0.0664, GTACTGCA 0.125, GTGTCAGA 0.245, GTTGAGAA -0.0618, ATTAACGG 0.0134, ATGGCCTA -0.0812, AGGGGGTC -0.29, TCCCTGCA -0.0684, GACGTGCC -0.117, CAGGTCGA 0.00523, ACGAAACC 0.0811, AAGACTGT -0.00912, AAGTTGAG -0.0111, GGATTCGA 0.0364, ACTTCTCG -0.0017, CACTCAGC -0.108, AGAAAAAA 0.0119, ATCCTTGG -0.0733, CCATTTAA 0.0674, AATTCGAG -0.0149, GCACCGAA -0.0211, AAGTGATG 0.113, AGTGTTGA 0.0384, AGGGGCAA -0.106, AGTCTAGG -0.0306, ATCCATTC 0.0344, AAAGCGAA -0.0738, CATTGGGG -0.0653, CAGGGTTC -0.112, AAACAAGG 0.231, AATACCCA 0.0274, CGTACTGC -0.0592, GGTATTAC 0.171, GGGACCGA -0.122, AGTTCCAA 0.0569, AATTGCAC 0.0835, GTAAGACA 0.153, TATTTAAA 0.132, GCAACGGA -0.0514, TAAGCAAA 0.0585, CAGTACCG 0.0729, GTTTGAGA 0.0472, ACAATCTC 0.0902

PBM E-score, ≥ 0.0722:
TACTCGGA
